Measured values as given in the supplement of paper PMC12217912.
The list shows a part of the results. The full chains were built here from the parent and the listed change. Values near 0.05 are background.

B1: TEV protease; numbered along this chain (parent)
chain: MGESLFKGPRDYNPISSSICHLTNESDGHTTSLYGIGFGPFIITNKHLFRRNNGTLVVQSLHGVFKVKDTTTLQQHLVDGRDMIIIRMPKDFPPFPQKLKFREPQREERICLVTTNFQTKSMSSMVSDTSCTFPSGDGIFWKHWIQTKDGQCGSPLVSTRDGFIVGIHSASNFTNTNNYFTSVPKNFMELLTNQEAQQWVSGWRLNADSVLWGGHKVFMVKPEEPFQPVKEATQL

Variants of: B1
Assay: raw area under fraction-flipped curve 0-4 h after induction (AUC4h, not background-subtracted), DNA-recorder readout of cleavage of the substrate (dimensionless); higher = more cleavage of the substrate by the protease variant
Conditions: temperature: 34 °C; time window: 0-4 h after rhamnose induction
Protocol: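 In vivo DNA recorder in E. coli TOP10(DE3) ΔrhaA at 34 °C. Each TEVp single-site mutant (parent TEVp 0) is paired with a single-site variant of the 7-mer TEVs (canonical ENLYFQ|S). The substrate sits between flexible linkers in a Bxb1-sfGFP-TEVs-SsrA fusion, so cleavage stabilises Bxb1 and speeds flipping of a recombination array, read by NGS. The value is the raw area under the fraction-flipped curve over 0-4 h after rhamnose induction (AUC4h), with ≥20 reads per time point. It is not background-subtracted; inactive controls average about 0.047.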
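Also: Bxb1 expression induced with 0.2% (w/v) L-rhamnose at OD600 near 0.5, cultures sampled hourly, flipped fraction per protease–substrate barcode pair counted by paired-end Illumina sequencing.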

Variant	area with substrate ENAYFQS	area with substrate ENDYFQS	area with substrate ENEYFQS	area with substrate ENGYFQS	area with substrate ENHYFQS	area with substrate ENIYFQS	area with substrate ENMYFQS	area with substrate ENNYFQS	area with substrate ENPYFQS	area with substrate ENQYFQS	area with substrate ENTYFQS	area with substrate ENVYFQS	area with substrate ENYYFQS	area with substrate ENFYFQS	area with substrate ENRYFQS	area with substrate ENSYFQS	area with substrate ENWYFQS	area with substrate ENCYFQS	area with substrate ENKYFQS
P89M	0.0419	0.0621	0.0578	0.0537	0.0823	0.0791	0.0843	0.0479	0.0493	0.0617	0.0511	0.055	0.0547	–	–	–	–	–	–
P89Q	0.0639	–	0.059	0.0615	0.0603	0.0628	–	0.0714	0.0518	0.055	0.0575	0.0615	–	0.0605	0.0562	0.055	0.0476	–	–
D82A	0.0393	–	0.0652	–	–	–	0.0706	–	–	0.076	–	–	0.0525	–	–	–	–	–	–
P96I	0.0538	0.0562	0.052	0.0588	0.0537	–	0.0855	0.0432	0.0645	0.0602	0.059	0.0687	–	0.0563	0.0509	0.0321	–	0.0667	–
F95C	0.04	0.056	0.118	–	–	0.086	–	0.0563	–	0.0602	–	0.0397	–	0.0571	–	0.0557	–	–	0.0646
F95K	0.0501	0.0481	0.0439	0.0533	–	–	–	0.0589	–	0.0567	0.0654	–	–	–	0.0516	–	0.0489	–	–
F95I	0.0439	0.0445	0.0539	0.0513	0.0518	–	–	–	–	0.0587	–	–	0.0673	–	–	0.0607	–	–	–
F92D	0.0559	–	0.0487	–	–	–	–	–	0.0529	0.0599	0.0561	0.0601	–	–	–	0.0426	–	0.0522	0.0559
F92I	0.0666	0.0575	–	0.0558	–	0.0946	0.0941	–	–	0.0607	0.0598	0.0794	0.0641	0.0616	–	0.0547	–	–	–
I84R	0.0513	0.0602	0.0497	–	–	0.0595	0.0637	0.063	–	–	0.0661	0.0564	–	0.0688	–	–	–	0.0892	–
I84D	0.0598	0.0563	0.0473	0.0561	–	0.0533	0.0516	–	0.0518	0.046	0.0328	0.059	0.057	0.05	–	0.0513	–	0.0455	0.0703
R81Y	0.0415	0.0649	0.0609	0.0692	0.0623	0.084	0.0852	0.061	–	0.0625	–	–	0.0641	0.0511	–	0.0558	0.0616	0.0621	–
R81S	0.0593	–	0.0654	0.037	–	–	0.07	0.0606	0.0753	0.0653	0.0798	0.0965	0.0585	0.0622	–	0.0636	0.0202	0.0655	0.0583
P94R	0.0524	0.067	0.0455	0.0565	–	–	–	0.075	0.0608	0.046	0.0326	–	–	–	0.052	–	0.0437	0.0669	–
P94S	0.0518	0.0774	–	–	–	–	0.0757	0.083	–	0.0616	–	0.0711	–	–	–	0.0724	–	–	–
R87I	0.0633	0.0579	0.0549	0.0591	0.0641	0.0872	–	0.0502	0.0654	0.0443	0.0631	0.0601	0.0528	0.0446	0.0618	0.0541	–	0.0653	–

Variant	area with substrate ENAYFQS	area with substrate ENDYFQS	area with substrate ENEYFQS	area with substrate ENGYFQS	area with substrate ENHYFQS	area with substrate ENIYFQS	area with substrate ENMYFQS	area with substrate ENNYFQS	area with substrate ENPYFQS	area with substrate ENQYFQS	area with substrate ENTYFQS	area with substrate ENVYFQS	area with substrate ENYYFQS	area with substrate ENFYFQS	area with substrate ENRYFQS	area with substrate ENSYFQS	area with substrate ENWYFQS	area with substrate ENCYFQS	area with substrate ENKYFQS
R87Y	0.0369	0.0776	0.053	0.0706	–	–	–	–	–	0.0716	0.0794	0.073	–	0.0391	–	0.0613	–	–	–
R87A	0.0609	–	0.0571	–	–	–	–	0.0332	–	0.057	0.0603	–	–	0.0663	0.065	–	–	0.0535	–
R87C	0.0938	0.0579	0.0645	–	0.0589	0.114	–	0.0721	–	0.0432	–	–	–	0.046	–	–	–	0.0718	–
R87S	0.0551	0.0566	0.0567	0.06	0.0581	0.0666	–	–	–	0.0589	0.0728	0.06	–	0.0522	0.0506	0.0481	0.0504	0.06	0.0487
I86T	0.0491	–	0.0799	0.0637	0.0278	–	–	0.0515	–	0.0439	0.0522	–	–	–	0.0579	0.068	0.0445	0.0589	0.0585
I86L	0.0731	0.0558	–	–	0.0327	–	–	0.0529	–	0.0589	–	–	–	–	–	–	–	–	–
I86S	0.0553	0.0393	0.054	0.0741	–	0.0508	0.0488	–	–	0.0578	0.0438	–	0.0354	0.0511	0.0513	0.0592	–	0.0509	0.0377
D91I	0.0652	0.0586	–	–	–	0.107	0.0735	0.0707	0.0588	0.0626	–	0.084	–	0.0647	–	0.0799	–	0.0583	0.0789
D91K	0.0584	0.058	0.0628	–	–	–	–	0.0584	0.0439	0.0556	–	0.0631	0.0662	–	0.0626	0.0565	–	0.0613	0.0527
D91N	0.0367	0.0483	0.0697	–	–	–	–	–	0.0293	0.072	0.0564	0.0788	–	–	0.0616	0.0577	–	–	0.066
K90N	0.0555	–	–	–	–	0.0894	–	0.0596	0.0587	0.064	0.0487	–	0.0569	0.0554	0.0926	–	–	–	–
K90S	0.0678	0.0589	–	0.0666	0.0684	0.113	–	–	0.0762	0.0698	0.0672	0.0626	–	0.0611	0.0422	0.079	0.0293	0.0625	–
K90P	0.0571	0.0744	0.0542	–	0.0543	0.0913	–	0.06	0.0584	0.0688	0.0755	0.0891	–	–	0.0503	0.0605	–	0.0677	–
K90R	0.0662	0.0586	–	–	–	–	–	0.0544	–	–	–	–	0.0564	0.0642	–	0.0633	–	–	–
P93V	0.0664	–	0.0476	0.0566	–	0.107	0.0909	–	0.0675	0.0427	–	–	–	–	–	0.0739	–	0.0672	0.047
